Data from the supplement of paper PMC6206098.
± gives the uncertainty stated by the source. The sequences are guide strands of siRNAs; only the seed at positions 2 to 7 varies.

Assays:
3LL = assay: cell viability relative to siNT1 control; higher = less toxic; settings: concentration: 10 nM; 96 h; Mus musculus;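 further: Luminescence-based viability of cells reverse transfected in 384-well plates with lipid-complexed siRNAs built on a non-toxic 19mer backbone whose passenger strand carries 2′-O-methyl groups at positions 1 and 2, triplicates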
Experimental: (§1)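 Arrayed screen of 4096 siRNA duplexes, each carrying one of all possible 6mer seeds at guide-strand positions 2-7 in a fixed neutral 19mer scaffold (constant flanks: U at position 1, then ACAUGUAAACCA, plus a 3' AA overhang). The passenger strand is 2'-O-methylated at positions 1-2 so only the guide strand loads into RISC. Duplexes were reverse-transfected at 10 nM with RNAiMAX in triplicate in 384-well plates; viability was read by CellTiter-Glo ATP content 96 h after transfection. Values are % viability normalised to lipid-only wells (HeyA8, H460, M565) or to siNT1 (3LL).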

H460 = assay: cell viability relative to lipid-only control; HeyA8 human ovarian and H460 human lung cancer; M565 mouse liver and 3LL mouse lung cancer; siNT1 is a non-toxic control siRNA; higher = less toxic; settings: concentration: 10 nM; 96 h; Homo sapiens
Experimental: as §1

HeyA8 = assay: as above; settings: concentration: 10 nM; 96 h; Homo sapiens
Experimental: as §1

M565 = assay: as above; settings: concentration: 10 nM; 96 h; Mus musculus
Experimental: as §1
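Wherever cell viability relative to lipid-only control is given: reverse lipid transfection in 384-well plates, in triplicate, of duplexes on a non-toxic 19mer backbone with passenger strand 2′-O-methylated at positions 1 and 2, luminescence viability read-out.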

Sequence	cell viability (3LL) [%]	cell viability (H460) [%]	cell viability (HeyA8) [%]	cell viability (M565) [%]
UGCUGAGACAUGUAAACCAAA	50.9 ± 1.6	55.9 ± 5.1	35.2 ± 1.7	17.2 ± 7.5
UUGUAGUACAUGUAAACCAAA	47.3 ± 1	23.9 ± 3.1	5.4 ± 0.33	18.8 ± 3.5
UCCUGUUACAUGUAAACCAAA	83.9 ± 12	70.4 ± 9	63.3 ± 3.5	43.2 ± 4.7
UGGUGGAACAUGUAAACCAAA	8.99 ± 3.9	6.83 ± 0.6	2 ± 1.5	12.2 ± 0.93
UCCCUGCACAUGUAAACCAAA	15.6 ± 5.9	33.5 ± 4.7	29.1 ± 2.3	37.3 ± 4.5
UCUGGAUACAUGUAAACCAAA	90.2 ± 11	61.2 ± 3.7	52.6 ± 1.1	17.1 ± 1.4
UGCCCUAACAUGUAAACCAAA	85.2 ± 14	76.7 ± 23	82.8 ± 6.6	51.2 ± 6.1
UCGAAGAACAUGUAAACCAAA	93.2 ± 16	64 ± 0.89	83.6 ± 5.5	71.1 ± 9.9
UCCUUGUACAUGUAAACCAAA	48.5 ± 7.4	84.9 ± 6.9	41.5 ± 5.9	77.7 ± 12
UGAAGGCACAUGUAAACCAAA	4.28 ± 1.8	21.7 ± 3.8	10.6 ± 1.8	6.41 ± 2.5
UUUGAGCACAUGUAAACCAAA	12.5 ± 3.3	66 ± 3.3	85.9 ± 5.9	28 ± 4.5
UUCUGAAACAUGUAAACCAAA	101 ± 4.3	73.5 ± 7.8	89.46 ± 0.46	97.6 ± 15
UACAGCAACAUGUAAACCAAA	87.2 ± 7.5	67.5 ± 6.7	93.1 ± 4.9	80 ± 5.2
UUGUAGGACAUGUAAACCAAA	7.39 ± 1.3	42.5 ± 7	50.2 ± 2.3	14.5 ± 0.78
UACUGCCACAUGUAAACCAAA	10.3 ± 1.7	51.5 ± 3.7	25.6 ± 4.3	5.01 ± 1.9
UUCGAAUACAUGUAAACCAAA	103 ± 29	73.1 ± 4.7	99.5 ± 13	73 ± 8.8
UACGGUCACAUGUAAACCAAA	45.9 ± 12	57.9 ± 4.5	24.3 ± 3.1	37.8 ± 5.1
UCGAGGCACAUGUAAACCAAA	9.6 ± 3.6	40.2 ± 5.6	28.6 ± 1.8	5.31 ± 1.4
UUUUCGUACAUGUAAACCAAA	89 ± 5.2	71.4 ± 12	82.6 ± 2.8	89.2 ± 8.1
UGGCGGUACAUGUAAACCAAA	26.1 ± 1.5	15.5 ± 2.1	2.38 ± 0.3	17.4 ± 1
UCCCGGUACAUGUAAACCAAA	105 ± 21	72 ± 7.5	61.9 ± 1.4	40.7 ± 7.5
UGGCUCGACAUGUAAACCAAA	15.9 ± 2.6	23.1 ± 3.4	15.6 ± 2.4	24.3 ± 3.4
UAUACUCACAUGUAAACCAAA	83.7 ± 10	67.6 ± 6.3	99.1 ± 8.7	52.9 ± 3.1
UGCUGGCACAUGUAAACCAAA	20.8 ± 6.5	25.5 ± 3	28 ± 5.4	29 ± 7

Sequence	cell viability (3LL) [%]	cell viability (H460) [%]	cell viability (HeyA8) [%]	cell viability (M565) [%]
UUCCUUUACAUGUAAACCAAA	66 ± 27	58.3 ± 4	90.4 ± 8.2	89.5 ± 20
UCGUACUACAUGUAAACCAAA	76.8 ± 23	60.6 ± 9.4	41.3 ± 3.8	81.7 ± 11
UGGCGUAACAUGUAAACCAAA	87.2 ± 13	71 ± 9.5	27.1 ± 3.3	58.4 ± 14
UGUGCAGACAUGUAAACCAAA	76.2 ± 6.7	67.7 ± 16	75.8 ± 9	64.2 ± 4.4
UGUACUGACAUGUAAACCAAA	90.2 ± 6.7	110 ± 5.8	92.6 ± 5.7	51.8 ± 8.6
UAGAGGCACAUGUAAACCAAA	2.48 ± 0.27	33.4 ± 4.9	25.6 ± 1.2	4.58 ± 0.54
UGCCAAUACAUGUAAACCAAA	83.9 ± 11	58 ± 3.1	81.8 ± 8.2	28.3 ± 10
UGAAAGCACAUGUAAACCAAA	56.5 ± 19	40.1 ± 8.8	47.5 ± 1.4	13.2 ± 3.3
UAAUCAAACAUGUAAACCAAA	117 ± 16	66.3 ± 4	86.5 ± 1.9	79 ± 5
UGUACGAACAUGUAAACCAAA	97.8 ± 8.1	112 ± 10	97.1 ± 7.2	81.4 ± 10
UUUGACUACAUGUAAACCAAA	79.9 ± 0.99	49.4 ± 3.1	76.9 ± 1.2	84.7 ± 11
UUAGCCAACAUGUAAACCAAA	56.7 ± 2.9	57 ± 6.1	63.3 ± 6.9	72.9 ± 14
UCCGGCGACAUGUAAACCAAA	102 ± 26	51.5 ± 4.5	51.4 ± 6.4	59 ± 12
UGCCACCACAUGUAAACCAAA	38.8 ± 5.8	39.8 ± 4.4	37.1 ± 3	4.97 ± 2.3
UUAACAGACAUGUAAACCAAA	84.9 ± 5.4	91.1 ± 25	91.9 ± 10	79.5 ± 3
UGUUGAGACAUGUAAACCAAA	48.2 ± 18	79.1 ± 12	46.7 ± 5.8	23.2 ± 4.8
UGUCACGACAUGUAAACCAAA	87.2 ± 15	22.3 ± 2.4	109 ± 16	51 ± 6.8
UCAAUUGACAUGUAAACCAAA	100 ± 24	76.3 ± 15	91.8 ± 7.3	79.6 ± 12
UGUAUUUACAUGUAAACCAAA	85.9 ± 2.8	69.5 ± 19	68.8 ± 5.1	74.1 ± 10
UGUUGUCACAUGUAAACCAAA	46.9 ± 21	27 ± 3.6	19.7 ± 1.8	21.6 ± 5.3
UGGCAGUACAUGUAAACCAAA	31 ± 2.5	19.3 ± 1.8	6.18 ± 1.5	15.5 ± 1.9
UUGAGGGACAUGUAAACCAAA	50 ± 3.7	37 ± 6.2	57 ± 6.1	15.5 ± 0.89
UGAUCUGACAUGUAAACCAAA	57.8 ± 14	51.3 ± 1.6	57.4 ± 3.8	48.7 ± 2.4
UGACUCCACAUGUAAACCAAA	2.51 ± 0.7	12.1 ± 1.1	19.9 ± 1.8	4.4 ± 1.2
